This note sets out measurements from the supplement of paper PMC9446081.

Molecules are shown by their SMILES. Among all 39,000 compounds or so, about 220 (0.56%) showed activity. This is one part of the list.
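Note: static incubation at 37 °C against the wild-type strain, values averaged over two biological replicates.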

For this experiment, the system named is Escherichia coli K-12 BW25113. Briefly: relative growth (OD600 normalised to plate interquartile mean) (fraction); higher = less growth inhibition, active = 0.2 or less. The following applies: 50 µM; LB; incubation time: overnight (16-24 h).
Turning to `CN1CCC[C@H]1CCO`, the relative growth was inactive: 1. To `CCN(CCCc1ccccc1)CCCc1ccccc1.O=C(O)CC(O)(CC(=O)O)C(=O)O` belongs inactive: 0.881; to `CC(C)NC(=O)N(C)C[C@H]1Oc2c(NC(=O)Nc3ccc4c(c3)OCO4)cccc2C(=O)N([C@H](C)CO)C[C@@H]1C`, inactive: 0.992; to `C[C@H](CO)N1C[C@H](C)[C@@H](CN(C)CC2CCCCC2)OCCCC[C@H](C)Oc2ccc(NC(=O)Nc3ccc(F)cc3)cc2C1=O`, inactive: 1.

Take `COc1ccc(S(=O)(=O)N(C)C[C@@H]2Oc3ccc(NC(=O)Cc4ccccc4)cc3C(=O)N([C@@H](C)CO)C[C@@H]2C)cc1`: the relative growth was inactive: 1. Turning to `COCC(=O)N1C[C@@H](C)[C@@H](OC)CN(C)C(=O)c2ccc(NC(=O)c3cc(C)on3)cc2OC[C@H]1C`, the relative growth was inactive: 1.04.

For `CC(C)NC(=O)Nc1ccc2c(c1)C(=O)N([C@H](C)CO)C[C@@H](C)[C@@H](CN(C)S(=O)(=O)c1cn(C)cn1)O2`, the relative growth was inactive: 1. To `O=C(C[C@@H]1CC[C@@H]2NC[C@@H](O)COC[C@H]2O1)NCCN1CCCCC1` belongs inactive: 0.988; to `C[C@H]1CCc2c(sc(/N=C/C=C/c3ccccc3)c2C#N)C1`, inactive: 0.987. To `N#CCN1CCNCC1` belongs inactive: 0.995. To `C[C@@H]1CN([C@@H](C)CO)C(=O)Cc2cc(NS(=O)(=O)c3ccccc3)ccc2O[C@H]1CN(C)Cc1ccncc1` belongs inactive: 0.992; to `COc1ccc(S(=O)(=O)N(C)C[C@@H]2OCCCC[C@H](C)Oc3ccc(NC(=O)Nc4c(C)noc4C)cc3C(=O)N([C@@H](C)CO)C[C@H]2C)cc1`, inactive: 1.03; to `CC(=O)N1[C@H](CO)[C@H](c2ccccc2)C12CN(C(=O)CN1CCOCC1)C2`, inactive: 1. Take `C[C@H](CO)N1C[C@H](C)[C@H](CN(C)S(=O)(=O)c2ccc(F)cc2)Oc2ccc(NC(=O)Nc3ccc(C(F)(F)F)cc3)cc2C1=O`: the relative growth is inactive: 0.988.

As for `COc1cc(C)c(C(=O)O)c(OC(C)=O)c1`, the relative growth was inactive: 0.993. To `COCOc1ccc2cc(Br)ccc2c1-c1c(OCOC)ccc2cc(Br)ccc12` belongs inactive: 1.13.

Regarding `C[C@@H]1CCCCO[C@@H](CN(C)S(=O)(=O)c2cccs2)[C@H](C)CN([C@H](C)CO)C(=O)c2cc(NS(C)(=O)=O)ccc2O1`, the relative growth is inactive: 0.978. The figure for `COc1ccc(NC(=O)Nc2ccc3c(c2)C(=O)N([C@H](C)CO)C[C@@H](C)[C@H](CN(C)S(=O)(=O)c2cn(C)cn2)O3)cc1` is inactive: 0.998; for `C[C@H](CO)N1C[C@H](C)[C@H](CN(C)S(=O)(=O)c2ccc(-c3ccccc3)cc2)OCc2cnnn2CCCC1=O` it is inactive: 1.02. To `CN(C)C(=O)N[C@H]1CN(S(C)(=O)=O)[C@H]2CCCO[C@@H]12` belongs inactive: 0.999; to `C[C@@H]1CN([C@H](C)CO)C(=O)Cc2cc(N(C)C)ccc2O[C@@H]1CN(C)S(=O)(=O)c1ccc(F)cc1`, inactive: 1; to `COCC(=O)N1C[C@@H](C(=O)N2CCCO2)C[C@@H]2OCC[C@@H]21`, inactive: 0.997. For the molecule `Nc1nccc2c1ncn2[C@@H]1C=C(CO)[C@@H](O)[C@H]1O`, the relative growth is inactive: 0.997.

As to `C[C@@H]1CN([C@@H](C)CO)C(=O)Cc2cc(NS(=O)(=O)c3cccs3)ccc2O[C@H]1CN(C)S(=O)(=O)c1ccc(F)cc1`, the relative growth is inactive: 0.959. For `C[C@@H]1CN([C@@H](C)CO)C(=O)c2cccc(NC(=O)c3ccc(-c4nccs4)cc3)c2O[C@H]1CN(C)Cc1ccc(Oc2ccccc2)cc1`, the relative growth is inactive: 1.03.

For `C[C@H](CO)N1C[C@H](C)[C@H](CN(C)S(=O)(=O)c2cn(C)cn2)Oc2c(NC(=O)NC3CCCCC3)cccc2C1=O`, the relative growth was inactive: 1. To `CN(C)C(=O)COC[C@H]1CN(S(C)(=O)=O)Cc2nnn(C)c21` belongs inactive: 1; to `C[C@@H]1CN([C@@H](C)CO)S(=O)(=O)c2ccc(C#CCN(C)C)cc2O[C@@H]1CN(C)Cc1ccccn1`, inactive: 1; to `COC(=O)C[C@H]1CC[C@@H](N)[C@@H](CO)O1`, inactive: 1.01. To `CN(Cc1ccc(C(C)(C)C)cc1)Cc1cccc2ccccc12` belongs inactive: 0.968. In the case of `C[C@@H]1CN([C@@H](C)CO)C(=O)c2cc(NC(=O)Nc3ccc4c(c3)OCO4)ccc2O[C@@H]1CN(C)Cc1ccc(C(F)(F)F)cc1`, the relative growth is inactive: 1.02.

For `COc1ccc(CN(C)C[C@H]2OCCCC[C@@H](C)Oc3ccc(NC(=O)NC4CCCCC4)cc3C(=O)N([C@@H](C)CO)C[C@@H]2C)cc1`, the relative growth is inactive: 0.991. To `O=C(CCCCCCC(=O)Nc1ccc([C@@H]2O[C@H](CSc3ccncc3)C[C@H](c3ccccc3)O2)cc1)NO` belongs inactive: 0.972. To `COC(=O)[C@H]1NCCS1` belongs inactive: 0.99; to `CCCN(C)C[C@H]1OCCCC[C@@H](C)Oc2ccc(NC(=O)Nc3ccc(OC)cc3)cc2C(=O)N([C@H](C)CO)C[C@@H]1C`, inactive: 1.02; to `CCS(=O)(=O)N1C[C@]2(CCN(CC2)S(=O)(=O)c2cn(cn2)C)c2c([nH]c3cc(ccc23)OC)[C@@H]1CO`, inactive: 0.965. To `COCC(=O)N(C)C[C@H]1Oc2cc(C#CCN(C)C)ccc2S(=O)(=O)N([C@@H](C)CO)C[C@H]1C` belongs inactive: 1.02. With `C[C@H](CO)N1C[C@H](C)[C@H](CN(C)Cc2ccc(-c3ccccc3)cc2)Oc2ccc(NS(=O)(=O)c3ccc(Cl)cc3)cc2CC1=O`, the relative growth was inactive: 0.989.

As to `C[C@H]1CN([C@@H](C)CO)S(=O)(=O)c2ccc(Br)cc2O[C@H]1CN(C)C(=O)Cc1ccccn1`, the relative growth is inactive: 0.965.

On to `O=C(CCCCCCCC(=O)NCCO)NCCO`, for which the relative growth was inactive: 0.892. To `C[C@@H]1CCCCO[C@H](CN(C)CC2CC2)[C@@H](C)CN([C@H](C)CO)C(=O)c2cc(NC(=O)Cc3ccccc3)ccc2O1` belongs inactive: 0.985. As to `C[C@@H]1CN([C@@H](C)CO)C(=O)Cc2cc(NS(=O)(=O)c3ccc(Cl)cc3)ccc2O[C@@H]1CN(C)S(C)(=O)=O`, the relative growth was inactive: 1.02. To `C[C@@H]1CN([C@@H](C)CO)C(=O)c2cc(NC(=O)C3CC3)ccc2O[C@H]1CN(C)Cc1ccc(-c2ccccc2)cc1` belongs inactive: 1.02.
